Our source for the binding signal (RPM ratio (pull-down/input)) values is paper PMC12820563.

Some of the results follow. The list includes weakly bound sequences.

For the experiment, the target named is T1, MBP-FoxP3dN (UniProt Q99JB6).
T1 sequence: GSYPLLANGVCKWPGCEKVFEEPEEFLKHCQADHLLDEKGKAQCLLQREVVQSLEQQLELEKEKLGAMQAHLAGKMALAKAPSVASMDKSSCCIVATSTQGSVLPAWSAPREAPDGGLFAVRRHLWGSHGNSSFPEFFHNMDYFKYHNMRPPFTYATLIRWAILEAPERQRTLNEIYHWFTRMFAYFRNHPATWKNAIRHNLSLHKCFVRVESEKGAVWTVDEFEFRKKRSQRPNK
In words: PD-seq (MBP pull-down with sequencing). The following applies: 20 mM Tris-HCl pH 7.5, 100 mM NaCl, 1.5 mM MgCl2, 0.4 uM protein, 0.1 uM dsDNA library, 30 min, room temperature, amylose pull-down; high values mean tight binding; double strand, one strand shown.
On to “GATGATTGTTCTCCCAGCTGATGAATTTTTCGGTTCGAGTAAACAAATTTTCCTAATCTTTCTGTTCAAGCGCCATCTAC”, for which the binding signal (RPM ratio (pull-down/input)) is 0.292. For the sequence “GATGATTGTTCTCCCAGCTGATGAATTTACTACTTCGAGTAAACAAATTTTCCTAATCTTTCTGTTCAAGCGCCATCTAC”, the binding signal (RPM ratio (pull-down/input)) came to 0.581. The result for “GATGATTGTTCTCCCAGCTGATGAATTCGTGGGATCGAGTAAACAAATTTTCCTAATCTTTCTGTTCAAGCGCCATCTAC” reads 0.367; that for “GATGATTGTTCTCCCAGCTGATGAATTGAGACAGTCGAGTAAACAAATTTTCCTAATCTTTCTGTTCAAGCGCCATCTAC”, 0.393. Regarding “GATGATTGTTCTCCCAGCTGATGAATTTTGCTTGTCGAGTAAACAAATTTTCCTAATCTTTCTGTTCAAGCGCCATCTAC”, the binding signal (RPM ratio (pull-down/input)) came to 5.89. In the case of “GATGATTGTTCTCCCAGCTGATGAATTCTTCTAATCGAGTAAACAAATTTTCCTAATCTTTCTGTTCAAGCGCCATCTAC” it was 0.276; in that of “GATGATTGTTCTCCCAGCTGATGAATTGGGGTGATCGAGTAAACAAATTTTCCTAATCTTTCTGTTCAAGCGCCATCTAC”, 0.475; in that of “GATGATTGTTCTCCCAGCTGATGAATTCACCCTTTCGAGTAAACAAATTTTCCTAATCTTTCTGTTCAAGCGCCATCTAC”, 0.325. With “GATGATTGTTCTCCCAGCTGATGAATTAGTAGTGTCGAGTAAACAAATTTTCCTAATCTTTCTGTTCAAGCGCCATCTAC”, the binding signal (RPM ratio (pull-down/input)) was found to be 2.76. “GATGATTGTTCTCCCAGCTGATGAATTGCATTGGTCGAGTAAACAAATTTTCCTAATCTTTCTGTTCAAGCGCCATCTAC”: the binding signal (RPM ratio (pull-down/input)) is 2.1. On to “GATGATTGTTCTCCCAGCTGATGAATTTCGACTGTCGAGTAAACAAATTTTCCTAATCTTTCTGTTCAAGCGCCATCTAC”, for which the binding signal (RPM ratio (pull-down/input)) came to 0.877.

As for “GATGATTGTTCTCCCAGCTGATGAATTGGGGCTCTCGAGTAAACAAATTTTCCTAATCTTTCTGTTCAAGCGCCATCTAC”, the binding signal (RPM ratio (pull-down/input)) stood at 0.383.

With “GATGATTGTTCTCCCAGCTGATGAATTAAGGGCGTCGAGTAAACAAATTTTCCTAATCTTTCTGTTCAAGCGCCATCTAC”, the binding signal (RPM ratio (pull-down/input)) turned out to be 0.508. The result for “GATGATTGTTCTCCCAGCTGATGAATTCTAGTTCTCGAGTAAACAAATTTTCCTAATCTTTCTGTTCAAGCGCCATCTAC” reads 0.594; that for “GATGATTGTTCTCCCAGCTGATGAATTGTTGGTATCGAGTAAACAAATTTTCCTAATCTTTCTGTTCAAGCGCCATCTAC”, 4.81; that for “GATGATTGTTCTCCCAGCTGATGAATTTTAAGTCTCGAGTAAACAAATTTTCCTAATCTTTCTGTTCAAGCGCCATCTAC”, 0.362.

For “GATGATTGTTCTCCCAGCTGATGAATTCTTGAACTCGAGTAAACAAATTTTCCTAATCTTTCTGTTCAAGCGCCATCTAC”, the binding signal (RPM ratio (pull-down/input)) is 0.217. On to “GATGATTGTTCTCCCAGCTGATGAATTTTTTCTATCGAGTAAACAAATTTTCCTAATCTTTCTGTTCAAGCGCCATCTAC”, for which the binding signal (RPM ratio (pull-down/input)) was determined as 0.262. As to “GATGATTGTTCTCCCAGCTGATGAATTTTGCTAGTCGAGTAAACAAATTTTCCTAATCTTTCTGTTCAAGCGCCATCTAC”, the binding signal (RPM ratio (pull-down/input)) was 2.86. In the case of “GATGATTGTTCTCCCAGCTGATGAATTGCTGACTTCGAGTAAACAAATTTTCCTAATCTTTCTGTTCAAGCGCCATCTAC” it was 0.938.

Turning to “GATGATTGTTCTCCCAGCTGATGAATTATTACTATCGAGTAAACAAATTTTCCTAATCTTTCTGTTCAAGCGCCATCTAC”, the binding signal (RPM ratio (pull-down/input)) turned out to be 0.535.

As for “GATGATTGTTCTCCCAGCTGATGAATTTATGCTATCGAGTAAACAAATTTTCCTAATCTTTCTGTTCAAGCGCCATCTAC”, the binding signal (RPM ratio (pull-down/input)) amounted to 1.46. Regarding “GATGATTGTTCTCCCAGCTGATGAATTAGGGGGGTCGAGTAAACAAATTTTCCTAATCTTTCTGTTCAAGCGCCATCTAC”, the binding signal (RPM ratio (pull-down/input)) was 0.692. The result for “GATGATTGTTCTCCCAGCTGATGAATTGGTTGAGTCGAGTAAACAAATTTTCCTAATCTTTCTGTTCAAGCGCCATCTAC” reads 0.683; that for “GATGATTGTTCTCCCAGCTGATGAATTACATCACTCGAGTAAACAAATTTTCCTAATCTTTCTGTTCAAGCGCCATCTAC”, 0.786. The result for “GATGATTGTTCTCCCAGCTGATGAATTGGAACTCTCGAGTAAACAAATTTTCCTAATCTTTCTGTTCAAGCGCCATCTAC” reads 0.343. For “GATGATTGTTCTCCCAGCTGATGAATTATAAGACTCGAGTAAACAAATTTTCCTAATCTTTCTGTTCAAGCGCCATCTAC”, the binding signal (RPM ratio (pull-down/input)) worked out at 0.27.

Take “GATGATTGTTCTCCCAGCTGATGAATTCGATACCTCGAGTAAACAAATTTTCCTAATCTTTCTGTTCAAGCGCCATCTAC”: the binding signal (RPM ratio (pull-down/input)) came to 0.674. In the case of “GATGATTGTTCTCCCAGCTGATGAATTCGGCGACTCGAGTAAACAAATTTTCCTAATCTTTCTGTTCAAGCGCCATCTAC” it was 1.54. With “GATGATTGTTCTCCCAGCTGATGAATTCACTTTTTCGAGTAAACAAATTTTCCTAATCTTTCTGTTCAAGCGCCATCTAC”, the binding signal (RPM ratio (pull-down/input)) amounted to 0.363.

Turning to “GATGATTGTTCTCCCAGCTGATGAATTGTTGAGCTCGAGTAAACAAATTTTCCTAATCTTTCTGTTCAAGCGCCATCTAC”, the binding signal (RPM ratio (pull-down/input)) came to 0.598. The result for “GATGATTGTTCTCCCAGCTGATGAATTCCCAGTCTCGAGTAAACAAATTTTCCTAATCTTTCTGTTCAAGCGCCATCTAC” reads 0.283; that for “GATGATTGTTCTCCCAGCTGATGAATTAGCCTTTTCGAGTAAACAAATTTTCCTAATCTTTCTGTTCAAGCGCCATCTAC”, 1.41; that for “GATGATTGTTCTCCCAGCTGATGAATTCCCGCTGTCGAGTAAACAAATTTTCCTAATCTTTCTGTTCAAGCGCCATCTAC”, 0.339. The result for “GATGATTGTTCTCCCAGCTGATGAATTATCAGACTCGAGTAAACAAATTTTCCTAATCTTTCTGTTCAAGCGCCATCTAC” reads 0.214. The result for “GATGATTGTTCTCCCAGCTGATGAATTACGGGAATCGAGTAAACAAATTTTCCTAATCTTTCTGTTCAAGCGCCATCTAC” reads 0.263; that for “GATGATTGTTCTCCCAGCTGATGAATTAGGGACCTCGAGTAAACAAATTTTCCTAATCTTTCTGTTCAAGCGCCATCTAC”, 0.304; that for “GATGATTGTTCTCCCAGCTGATGAATTATACGCATCGAGTAAACAAATTTTCCTAATCTTTCTGTTCAAGCGCCATCTAC”, 1.13. With “GATGATTGTTCTCCCAGCTGATGAATTTTTATCGTCGAGTAAACAAATTTTCCTAATCTTTCTGTTCAAGCGCCATCTAC”, the binding signal (RPM ratio (pull-down/input)) worked out at 0.38. On to “GATGATTGTTCTCCCAGCTGATGAATTACTTTCGTCGAGTAAACAAATTTTCCTAATCTTTCTGTTCAAGCGCCATCTAC”, for which the binding signal (RPM ratio (pull-down/input)) was determined as 0.398.
